# Measured values from patent publication US8492589B2, “Alkynyl phenyl derivative compounds for treating ophthalmic diseases and disorders” (Acucela Inc., priority 2007, dated 2013).
# Some entries share one result that the patent states for a list of compounds.
# Target: T1, recombinant human RPE65 and LRAT (Homo sapiens, UniProt Q16518)
# T1 construct: expressed in transfected cells; host or cells: HEK293 cell clone (homogenate); CRALBP was made in E. coli TOP10
# T1 sequence (Q16518 2-533 limits assumed): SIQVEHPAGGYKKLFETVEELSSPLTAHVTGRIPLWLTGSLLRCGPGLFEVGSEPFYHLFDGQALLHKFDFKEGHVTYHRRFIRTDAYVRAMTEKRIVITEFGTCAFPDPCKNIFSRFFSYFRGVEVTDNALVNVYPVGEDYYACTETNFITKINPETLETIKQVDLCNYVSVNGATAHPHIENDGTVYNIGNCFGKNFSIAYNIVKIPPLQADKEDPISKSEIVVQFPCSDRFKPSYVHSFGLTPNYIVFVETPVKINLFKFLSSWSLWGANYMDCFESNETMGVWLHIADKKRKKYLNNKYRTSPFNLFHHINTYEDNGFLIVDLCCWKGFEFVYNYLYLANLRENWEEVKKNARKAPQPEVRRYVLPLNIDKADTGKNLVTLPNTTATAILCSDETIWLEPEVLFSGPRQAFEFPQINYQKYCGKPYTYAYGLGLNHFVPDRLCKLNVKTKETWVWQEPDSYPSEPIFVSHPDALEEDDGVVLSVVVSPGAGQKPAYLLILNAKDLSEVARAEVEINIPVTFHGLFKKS
# Assay: In vitro isomerase inhibition assay, recombinant human enzyme system (HEK293 homogenate)
# Assay type: biochemical
# Details: homogenate of HEK293 cells expressing recombinant human RPE65 and LRAT; 11-cis-retinol formation
# Procedure: The concentration dependent effect of the compounds disclosed herein on the retinol isomerization reaction can also be evaluated with a recombinant human enzyme system. […] A homogenate of HEK293 cell clone expressing recombinant human RPE65 and LRAT were the source of the visual enzymes, and exogenous all-trans-retinol (about 20 μM) was used as the substrate. Recombinant human CRALBP (about 80 ug/mL) was added to enhance the formation of 11-cis-retinal. The 200 μL Bis-Tris Phosphate buffer (10 mM, pH 7.2) based reaction mixture also contains 0.5% BSA, and 1 mM NaPPi. In this assay, the reaction was carried out at 37° C. in duplicates for one hour and was terminated by addition of 300 μL methanol. The amount of reaction product, 11-cis-retinol, was measured by HPLC analysis following Heptane extraction of the reaction mixture. […] The ability of the numerous compounds disclosed herein to inhibit isomerization reaction is quantified and the respective IC50 value is determined. The tables below summarises the IC50 values of various compounds of the present invention determined by either of the above two methods. FIG. 1 is a representative figure of the IC50 determination of the compound of Example 2.
row,SMILES,"IC50 (μM), Human in vitro Inhibition Data"
1,"NCC(O)Cc1cccc(C#CC2(O)CCCC2)c1 (centres unmarked) [Example 112, 1-((3-(3-Amino-2-hydroxypropyl)phenyl)ethynyl)cyclopentanol]",≦0.01 μM
2,"NCCOc1cccc(C#CC2CC2)c1 [Example 113, 2-(3-(Cyclopropylethynyl)phenoxy)ethanamine]",≦1 μM
3,"NCCOc1cccc(C#CCCCO)c1 [Example 114, 5-(3-(2-Aminoethoxy)phenyl)pent-4-yn-1-ol]",≦1 μM
4,"NCCCc1cccc(C#CCCCO)c1 [Example 115, 5-(3-(3-Aminopropyl)phenyl)pent-4-yn-1-ol]",≦1 μM
5,"CCCCC#Cc1cccc(OCCN)c1 [Example 116, 2-(3-(Hex-1-ynyl)phenoxy)ethanamine]",≦0.01 μM
6,"COCC#Cc1cccc(OCCN)c1 [Example 117, 2-(3-(3-Methoxyprop-1-ynyl)phenoxy)ethanamine]",≦1 μM
7,"NCCC(O)c1cccc(C#CCO)c1 (centres unmarked) [Example 118, 3-(3-(3-Amino-1-hydroxypropyl)phenyl)prop-2-yn-1-ol]",≦1 μM
8,"CC(C)CC#Cc1cccc(C(O)CCN)c1 (centres unmarked) [Example 119, 3-Amino-1-(3-(4-methylpent-1-ynyl)phenyl)propan-1-ol]",≦0.01 μM
9,"CCCC(O)C#Cc1cccc(OCCN)c1 (centres unmarked) [Example 120, 1-(3-(2-Aminoethoxy)phenyl)hex-1-yn-3-ol]",≦0.01 μM
10,"COCCC#Cc1cccc(C(O)CCN)c1 (centres unmarked) [Example 121, 3-Amino-1-(3-(4-methoxybut-1-ynyl)phenyl)propan-1-ol]",≦0.01 μM
11,"CCCC(C)(O)C#Cc1cccc(OCCN)c1 (centres unmarked) [Example 122, 1-(3-(2-Aminoethoxy)phenyl)-3-methylhex-1-yn-3-ol]",≦0.01 μM
12,"C[C@@H](CN)Oc1cccc(C#CC2(O)CCCCC2)c1 [Example 123, (S)-1-((3-(1-Aminopropan-2-Yloxy)Phenyl)Ethynyl)Cyclohexanol]",≦10 μM
13,"CC(C)C(O)C#Cc1cccc(OCCN)c1 (centres unmarked) [Example 124, 1-(3-(2-Aminoethoxy)phenyl)-4-methylpent-1-yn-3-ol]",≦0.01 μM
14,"NCCC(O)c1cccc(C#Cc2ccccc2)c1 (centres unmarked) [Example 125, 3-Amino-1-(3-(phenylethynyl)phenyl)propan-1-ol]",≦0.01 μM
15,"CN(C)C(=O)CCC#Cc1cccc(C(O)CCN)c1 (centres unmarked) [Example 126, 5-(3-(3-Amino-1-hydroxypropyl)phenyl)-N,N-dimethylpent-4-ynamide]",≦1 μM
16,"COCCC#Cc1cccc(OCCN)c1 [Example 128, 2-(3-(4-Methoxybut-1-ynyl)phenoxy)ethanamine]",≦1 μM
17,"NCCOc1cccc(C#CC2(O)CCCCCCC2)c1 [Example 129, 1-(2-(3-(2-aminoethoxy)phenyl)ethynyl)cyclooctanol]",≦1 μM
18,"CCCC(O)C#Cc1cccc(C(O)CCN)c1 (centres unmarked) [Example 132, 1-(3-(3-amino-1-hydroxypropyl)phenyl) hex-1-yn-3-ol]",≦0.01 μM
19,"CCCC(O)(C#Cc1cccc(C(CCN)=NO)c1)CCC [Example 142, 3-Amino-1-(3-(3-hydroxy-3-propylhex-1-ynyl)phenyl)propan-1-one oxime]",≦10 μM
20,"NCCOc1cccc(C#CC2CCCCC2O)c1 (centres unmarked) [Example 144, 2-((3-(2-aminoethoxy)phenyl)ethynyl)cyclohexanol]",≦0.01 μM
21,"NCCC(O)c1cccc(C#CC2CCCCC2O)c1 (centres unmarked) [Example 145, 2-((3-(3-amino-1-hydroxypropyl)phenyl)ethynyl)cyclohexanol]",≦0.01 μM
22,"NCCOc1cccc(C#CC2(O)CCC2)c1 [Example 146, 1-(2-(3-(2-Aminoethoxy)phenyl)ethynyl)cyclobutanol]",≦0.01 μM

row,SMILES,"IC50 (μM), Human in vitro Inhibition Data"
1,"CC(C)C(O)C#Cc1cccc(C(O)CCN)c1 (centres unmarked) [Example 147, 1-(3-(3-Amino-1-hydroxypropyl)phenyl)-4-methylpent-1-yn-3-ol]",≦0.01 μM
2,"NCCCc1cccc(C#CC2(O)CCC2)c1 [Example 148, 1-(2-(3-(3-Aminopropyl)phenyl)ethynyl)cyclobutanol]",≦0.01 μM
3,"NCCC(O)c1cccc(C#CC2CCCCCCC2)c1 (centres unmarked) [Example 151, 3-Amino-1-(3-(2-cyclooctylethynyl)phenyl)propan-1-ol]",≦0.01 μM
4,"COCCCC#Cc1cccc(C(O)CCN)c1 (centres unmarked) [Example 152, 3-Amino-1-(3-(5-methoxypent-1-ynyl)phenyl)propan-1-ol]",≦0.01 μM
5,"NCC[C@@H](O)c1cccc(C#CCCc2ccccc2)c1 [Example 153, (R)-3-Amino-1-(3-(4-phenylbut-1-ynyl)phenyl)propan-1-ol]",≦0.01 μM
6,"CCCC(O)(C#Cc1cc(Cl)cc(C(O)CCN)c1)CCC (centres unmarked) [Example 154, 4-((3-(3-Amino-1-hydroxypropyl)-5-chlorophenyl)ethynyl)heptan-4-ol]",≦1 μM
7,"CCCC(O)(C#Cc1cc(C(O)CCN)ccc1F)CCC (centres unmarked) [Example 155, 4-((5-(3-Amino-1-hydroxypropyl)-2-fluorophenyl)ethynyl)heptan-4-ol]",≦0.01 μM
8,"CCCC(O)(C#Cc1ccc(Cl)c(C(O)CCN)c1)CCC (centres unmarked) [Example 156, 4-((3-(3-Amino-1-hydroxypropyl)-4-chlorophenyl)ethynyl)heptan-4-ol]",≦1 μM
9,"CCCC(O)(C#Cc1cc(OC)cc(C(O)CCN)c1)CCC (centres unmarked) [Example 157, 4-((3-(3-Amino-1-hydroxypropyl)-5-methoxyphenyl)ethynyl)heptan-4-ol]",≦1 μM
10,"COCCCC#Cc1cccc(OCCN)c1 [Example 158, 2-(3-(5-Methoxypent-1-ynyl)phenoxy)ethanamine]",≦1 μM
11,"CCCC(O)(C#Cc1cccc([C@H](O)[C@H](C)CN)c1)CCC [Example 159, 4-((3-((1R,2R)-3-Amino-1-hydroxy-2-methylpropyl)phenyl)ethynyl)heptan-4-ol]",≦0.01 μM
12,"C[C@H](CN)[C@@H](O)c1cccc(C#CC2(O)CCCC2)c1 [Example 160, 1-((3-((1R,2R)-3-Amino-1-hydroxy-2-methylpropyl)phenyl)ethynyl)-cyclopentanol]",≦0.01 μM
13,"NCC[C@@H](O)c1cccc(C#CCCC2CCCCC2)c1 [Example 161, (R)-3-amino-1-(3-(4-cyclohexylbut-1-ynyl)phenyl)propan-1-ol]",≦0.01 μM
14,"CCCC(O)(C#Cc1cc(C(O)CCN)ccc1OC)CCC (centres unmarked) [Example 162, 4-((5-(3-Amino-1-hydroxypropyl)-2-methoxyphenyl)ethynyl)heptan-4-ol]",≦0.01 μM
15,"CCCC(O)(C#Cc1ccc(C)c(C(O)CCN)c1)CCC (centres unmarked) [Example 163, 4-((3-(3-Amino-1-hydroxypropyl)-4-methylphenyl)ethynyl)heptan-4-ol]",≦10 μM
16,"CCCC(O)(C#Cc1cccc(/C=C/CN)c1)CCC [Example 164, (E)-4-((3-(3-Aminoprop-1-Enyl)Phenyl)Ethynyl)Heptan-4-ol]",≦0.01 μM
17,"CCCC(O)(C#Cc1cccc(C#CCN)c1)CCC [Example 165, 4-((3-(3-Aminoprop-1-ynyl)phenyl)ethynyl)heptan-4-ol]",≦0.01 μM
18,"CCCC(O)(C#Cc1cccc(CN)c1)CCC [Example 166, 4-((3-(Aminomethyl)phenyl)ethynyl)heptan-4-ol]",≦1 μM
19,"CCCC(O)(C#Cc1cccc(CCN)c1)CCC [Example 167, 4-((3-(2-Aminoethyl)phenyl)ethynyl)heptan-4-ol]",≦0.01 μM
20,"NCCOc1cccc(C#CC2CCCCCCC2)c1 [Example 168, 2-(3-(Cyclooctylethynyl)-phenoxy)ethanamine]",≦1 μM
21,"CCCC(O)(C#Cc1cccc([C@H](O)CN)c1)CCC [Example 169, (S)-4-((3-(2-amino-1-hydroxyethyl)phenyl)-ethynyl)heptan-4-ol]",≦1 μM
22,"CCCC(C)(O)C#Cc1cccc(C(O)CCN)c1 (centres unmarked) [Example 170, 1-(3-(3-Amino-1-hydroxypropyl)phenyl)-3-methylhex-1-yn-3-ol]",≦0.01 μM
